{
  "source": "paper PMC9911399",
  "about": "“Two distinct binding modes provide the RNA-binding protein RbFox with extraordinary sequence specificity”",
  "binders": {"B1": {"name": "GCCAGGU (DNA:RNA)", "RNA": "GGGAGACCGGAAUUCAGAUUGUCCGCCAGGUUUAAAUCCCGUCGUAGCCACCA", "DNA 1": "CAATCTGAATTCCGGTCTCCC", "DNA 2": "TGGTGGCTACGACGGGATT"}, "B2": {"name": "AGAAUAU (DNA:RNA)", "RNA": "B1 RNA with G25A, C26G, C27A, G29U, G30A", "DNA 1": "CAATCTGAATTCCGGTCTCCC", "DNA 2": "TGGTGGCTACGACGGGATT"}, "B3": {"name": "AAUAAUA (DNA:RNA)", "RNA": "B1 RNA with G25A, C26A, C27U, G29A, G30U, U31A", "DNA 1": "CAATCTGAATTCCGGTCTCCC", "DNA 2": "TGGTGGCTACGACGGGATT"}, "B4": {"name": "AGGGCGG (DNA:RNA)", "RNA": "B1 RNA with G25A, C26G, C27G, A28G, G29C, U31G", "DNA 1": "CAATCTGAATTCCGGTCTCCC", "DNA 2": "TGGTGGCTACGACGGGATT"}, "B5": {"name": "AGCCUUG (DNA:RNA)", "RNA": "B1 RNA with G25A, C26G, A28C, G29U, G30U, U31G", "DNA 1": "CAATCTGAATTCCGGTCTCCC", "DNA 2": "TGGTGGCTACGACGGGATT"}, "B6": {"name": "UGCGACC (DNA:RNA)", "RNA": "B1 RNA with G25U, C26G, A28G, G29A, G30C, U31C", "DNA 1": "CAATCTGAATTCCGGTCTCCC", "DNA 2": "TGGTGGCTACGACGGGATT"}, "B7": {"name": "AGCUGGC (DNA:RNA)", "RNA": "B1 RNA with G25A, C26G, A28U, U31C", "DNA 1": "CAATCTGAATTCCGGTCTCCC", "DNA 2": "TGGTGGCTACGACGGGATT"}, "B8": {"name": "GUUCACA (DNA:RNA)", "RNA": "B1 RNA with C26U, C27U, A28C, G29A, G30C, U31A", "DNA 1": "CAATCTGAATTCCGGTCTCCC", "DNA 2": "TGGTGGCTACGACGGGATT"}, "B9": {"name": "CACCCCC (DNA:RNA)", "RNA": "B1 RNA with G25C, C26A, A28C, G29C, G30C, U31C", "DNA 1": "CAATCTGAATTCCGGTCTCCC", "DNA 2": "TGGTGGCTACGACGGGATT"}, "B10": {"name": "UUGCGUC (DNA:RNA)", "RNA": "B1 RNA with G25U, C26U, C27G, A28C, G30U, U31C", "DNA 1": "CAATCTGAATTCCGGTCTCCC", "DNA 2": "TGGTGGCTACGACGGGATT"}, "B11": {"name": "GACAACC (DNA:RNA)", "RNA": "B1 RNA with C26A, G29A, G30C, U31C", "DNA 1": "CAATCTGAATTCCGGTCTCCC", "DNA 2": "TGGTGGCTACGACGGGATT"}, "B12": {"name": "ACUGAGA (DNA:RNA)", "RNA": "B1 RNA with G25A, C27U, A28G, G29A, U31A", "DNA 1": "CAATCTGAATTCCGGTCTCCC", "DNA 2": "TGGTGGCTACGACGGGATT"}, "B13": {"name": "GCACAUA (DNA:RNA)", "RNA": "B1 RNA with C27A, A28C, G29A, G30U, U31A", "DNA 1": "CAATCTGAATTCCGGTCTCCC", "DNA 2": "TGGTGGCTACGACGGGATT"}, "B14": {"name": "AUGCCGU (DNA:RNA)", "RNA": "B1 RNA with G25A, C26U, C27G, A28C, G29C", "DNA 1": "CAATCTGAATTCCGGTCTCCC", "DNA 2": "TGGTGGCTACGACGGGATT"}, "B15": {"name": "GUUAGGA (DNA:RNA)", "RNA": "B1 RNA with C26U, C27U, U31A", "DNA 1": "CAATCTGAATTCCGGTCTCCC", "DNA 2": "TGGTGGCTACGACGGGATT"}, "B16": {"name": "CCAACGG (DNA:RNA)", "RNA": "B1 RNA with G25C, C27A, G29C, U31G", "DNA 1": "CAATCTGAATTCCGGTCTCCC", "DNA 2": "TGGTGGCTACGACGGGATT"}, "B17": {"name": "UGCAUUG (DNA:RNA)", "RNA": "B1 RNA with G25U, C26G, G29U, G30U, U31G", "DNA 1": "CAATCTGAATTCCGGTCTCCC", "DNA 2": "TGGTGGCTACGACGGGATT"}, "B18": {"name": "UGCUUAA (DNA:RNA)", "RNA": "B1 RNA with G25U, C26G, A28U, G29U, G30A, U31A", "DNA 1": "CAATCTGAATTCCGGTCTCCC", "DNA 2": "TGGTGGCTACGACGGGATT"}, "B19": {"name": "GGUAUUC (DNA:RNA)", "RNA": "B1 RNA with C26G, C27U, G29U, G30U, U31C", "DNA 1": "CAATCTGAATTCCGGTCTCCC", "DNA 2": "TGGTGGCTACGACGGGATT"}, "B20": {"name": "UGCUUGA (DNA:RNA)", "RNA": "B1 RNA with G25U, C26G, A28U, G29U, U31A", "DNA 1": "CAATCTGAATTCCGGTCTCCC", "DNA 2": "TGGTGGCTACGACGGGATT"}},
  "note": "Where a chain is given by its changes, count along the chain named. The list shows a part of the results.",
  "data": [
    {"target": "T1, RBFOX1 RRM (Homo sapiens, UniProt Q9NWB1 109-208)", "T1 sequence": "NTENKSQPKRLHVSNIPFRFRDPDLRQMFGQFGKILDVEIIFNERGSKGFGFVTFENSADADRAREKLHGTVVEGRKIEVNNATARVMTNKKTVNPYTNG", "test": "EMSA; HiTS-Eq, 1 nM pool, 10 min; buffer printed only for the single-RNA assays: 10 mM Tris pH 7.5, 150 mM NaCl, 3.4 mM EDTA, 0.001% NP-40, 30 C", "settings": "tags: His6 N-terminal (pET28a); label: 5' 32P", "method_in_brief": "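Purified RbFox RRM, wild type or mutant, was incubated for 10 min in 50 µL with 1 nM of a 5′-radiolabelled RNA pool carrying 7 randomized nucleotides, whose flanks were annealed to DNA oligonucleotides, over a series of increasing protein concentrations. Unbound RNA was resolved on 8% native PAGE, cut out, reverse-transcribed, barcoded by PCR and sequenced on an Illumina HiSeq 2500. Relative association constants were derived from changes in read counts for each RNA species versus the control reaction and normalised to the cognate motif.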", "values": [
      {"binder": "B1", "binding signal": "0.0136 KA relative to UGCAUGU"},
      {"binder": "B2", "binding signal": "0.00265 KA relative to UGCAUGU"},
      {"binder": "B3", "binding signal": "0.000771 KA relative to UGCAUGU"},
      {"binder": "B4", "binding signal": "0.0287 KA relative to UGCAUGU"},
      {"binder": "B5", "binding signal": "0.0178 KA relative to UGCAUGU"},
      {"binder": "B6", "binding signal": "0.0118 KA relative to UGCAUGU"},
      {"binder": "B7", "binding signal": "0.0129 KA relative to UGCAUGU"},
      {"binder": "B8", "binding signal": "0.00568 KA relative to UGCAUGU"},
      {"binder": "B9", "binding signal": "0.00447 KA relative to UGCAUGU"},
      {"binder": "B10", "binding signal": "0.0198 KA relative to UGCAUGU"},
      {"binder": "B11", "binding signal": "0.00269 KA relative to UGCAUGU"},
      {"binder": "B12", "binding signal": "0.00967 KA relative to UGCAUGU"},
      {"binder": "B13", "binding signal": "0.00437 KA relative to UGCAUGU"},
      {"binder": "B14", "binding signal": "0.0108 KA relative to UGCAUGU"},
      {"binder": "B15", "binding signal": "0.00313 KA relative to UGCAUGU"},
      {"binder": "B16", "binding signal": "0.00496 KA relative to UGCAUGU"},
      {"binder": "B17", "binding signal": "0.0355 KA relative to UGCAUGU"},
      {"binder": "B18", "binding signal": "0.0138 KA relative to UGCAUGU"},
      {"binder": "B19", "binding signal": "0.0102 KA relative to UGCAUGU"},
      {"binder": "B20", "binding signal": "0.0378 KA relative to UGCAUGU"}
    ]}
  ]
}
